What was measured:
[1] = test system: methicillin-sensitive S. aureus (MSSA) (ATCC BAA-29213); experiment: Bactericidal assay (colony count), MSSA; conditions: 2 hours at 37° C.; concentration as low as 0.0001%; thujopsene (0.001%), totarol (0.0001%) or combination
Protocol: (§1) Experiments were conducted using bacteria including methicillin-sensitive S. aureus (MSSA) (ATCC BAA-29213, Manassas, VA), methicillin-resistant S. aureus (MRSA) (ATCC BAA-1556), and Streptococcuspyogenes (ATCC BAA-19615). Bacterial cultures were grown overnight in Tryptic Soy Broth (Becton Dickinson, Franklin Lakes, NJ) at 37° C. and reseeded in fresh medium three hours prior to experiment. Bacterial concentration was determined by optical density. Bacteria were incubated with vehicle, thujopsene (0.001%), totarol (0.0001%), or a combination of thujopsene (0.001%) and totarol (0.0001%) for 2 hours at 37° C. while shaking, then plated on Tryptic Soy Agar plates and incubated overnight at 37° C. Multiple dilutions were made for each sample to ensure that there were a measurable number of colonies on a given plate. Colonies were counted the following day.
(§2) Inhibitory effects of the mixture on bacteria were analyzed using the bactericidal assay.

[2] = test system: methicillin-resistant S. aureus (MRSA) (ATCC BAA-1556); experiment: Bactericidal assay (colony count), MRSA; conditions: 2 hours at 37° C.; concentration as low as 0.0001%; thujopsene (0.001%), totarol (0.0001%) or combination
Protocol: as §1, §2

| SMILES | Inhibition of MSSA [1] | Inhibition of MRSA [2] |
| --- | --- | --- |
| CC1=CC[C@]2(C)CCCC(C)(C)[C@@]23C[C@@H]13 [thujopsene] | significantly (P<0.0001) inhibited | significantly (P<0.0001) inhibited |
| CC(C)c1c(O)ccc2c1CC[C@H]1C(C)(C)CCC[C@]21C [totarol] | significantly (P<0.0001) inhibited | significantly (P<0.0001) inhibited |
